Some test systems named below: SR leukemia; SNB-75 CNS; MALME-3M melanoma; TK-10 renal; NCI-H522 lung; COLO 205 colon; M14 melanoma; IGROV1 ovarian; SK-OV-3 ovarian; NCI/ADR-RES ovarian; HCC-2998 colon; UO-31 renal; BT-549 breast; SNB-19 CNS; SF-268 CNS; NCI-H460 lung; T-47D breast; RXF 393 renal; MCF7 breast; SN12C renal; CAKI-1 renal; MDA-MB-231 breast; SK-MEL-2 melanoma; EKVX NSCLC; SF-295 CNS; ACHN renal; OVCAR-3 ovarian; KM12 colon; UACC-62 melanoma; UACC-257 melanoma; SF-539 CNS; NCI-H23 lung; HOP-92 NSCLC; CCRF-CEM leukemia; HS 578T breast; HOP-62 NSCLC; HT29 colon; U251 CNS; OVCAR-5 ovarian; DU-145 prostate; A549 NSCLC; SW-620 colon; LOX IMVI melanoma; PC-3 prostate; MOLT-4 leukemia; RPMI-8226 leukemia; MDA-MB-435; NCI-H226 lung; SNB-78 CNS; SK-MEL-5 melanoma; SK-MEL-28 melanoma; XF 498 CNS; P388 leukemia; SN12K1 renal.

Common to all, as to assay: NCI tumour cell line growth inhibition, 48 h

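Five compound concentrations were applied to cells in 96-well plates for 48 hours; endpoints were derived by simple linear interpolation of the resulting dose-response curve. Here, GI50 denotes the concentration required for 50% inhibition of growth.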 For part of its entries the source gives two or more results. Only these are listed. There may be further records. For some assays here: A record mostly stands for its own series of concentrations, which the source does not state; a value can be the end of its range. For some assays here: The values listed for one entry are repeats across runs, samples, wells, individuals or studies. A tag in brackets gives the origin of a value. The letters are not those of the source and start again with each entry.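 TGI: concentration producing complete growth inhibition.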

Regarding `CCOC(=O)C(Cc1c[nH]c2cc(N(CCO)CCO)ccc12)(NC(C)=O)C(=O)OCC`, the TGI in the experiment with SR leukemia is 82.8 µM and > 1 mM. In addition, the GI50 in the experiment on SNB-75 CNS is 38 µM and > 1 mM.
Consider `CN1CCN(c2ccc(OC(F)(F)F)c(Nc3ncc4c(n3)-c3c(c(C(N)=O)nn3CCO)CC4)c2)CC1`, for which the GI50 is 14.1 µM [sample A, mean of 2 tests] and 404 nM [sample B, mean of 2 tests] in the experiment with MALME-3M melanoma; 853 nM [sample A, mean of 2 tests] and 81.6 nM [sample B, mean of 2 tests] in the experiment with IGROV1 ovarian. Moreover, the TGI with TK-10 renal was 52 µM [sample A, mean of 2 tests] and 2.15 µM [sample B, 1 test]; with NCI-H522 lung, 12 µM [sample A, mean of 2 tests] and 379 nM [sample B, mean of 2 tests]; in the experiment with COLO 205 colon it was 14 µM [sample A, mean of 2 tests] and 321 nM [sample B, mean of 2 tests]; in the experiment on M14 melanoma, 18.8 µM [sample A, mean of 2 tests] and 299 nM [sample B, mean of 2 tests].
For `Nc1ncnc2c1ncn2C1OC(COS(N)(=O)=O)C(O)C1O` (configuration not stated), the GI50 was 2.9 nM and 30.1 nM with SK-OV-3 ovarian; < 1 nM and 20 nM in the experiment on NCI/ADR-RES ovarian; 1.86 nM and 19.5 nM with HCC-2998 colon; 2.03 nM and 22 nM in the experiment on UO-31 renal; 2.73 nM and 28.4 nM in the experiment on SF-268 CNS; 1.27 nM and 32.8 nM with NCI-H460 lung. For the same compound, the GI50 is < 1 nM and 24.5 nM in the experiment on T-47D breast; 2 nM and 21.4 nM with RXF 393 renal; 2.27 nM and 24 nM in the experiment with MCF7 breast; 1.49 nM and 21.9 nM with CAKI-1 renal; 2.08 nM and 22.3 nM with SK-MEL-2 melanoma; 2.7 nM and 56.7 nM with EKVX NSCLC. Moreover, the GI50 is 2.31 nM and 34 nM in the experiment with SF-295 CNS; 2.69 nM and 34.7 nM in the experiment on ACHN renal; 2.36 nM and 25.7 nM with OVCAR-3 ovarian; 2.03 nM and 26.8 nM in the experiment on MALME-3M melanoma; 1.2 nM and 18.7 nM with KM12 colon; 2.56 nM and 35.2 nM in the experiment on UACC-62 melanoma. Also, the GI50 was 2.38 nM and 30.8 nM in the experiment with UACC-257 melanoma; 2.08 nM and 25.2 nM with SF-539 CNS; 2.04 nM and 22.5 nM in the experiment on NCI-H23 lung; < 1 nM and 19.6 nM with TK-10 renal; 1.67 nM and 21.1 nM in the experiment on HOP-92 NSCLC; 2.47 nM and 29.7 nM with CCRF-CEM leukemia. For the same compound, the GI50 is 2.72 nM and 31.8 nM with HS 578T breast; < 1 nM and 10.9 nM with HOP-62 NSCLC; 2.48 nM and 30.3 nM with HT29 colon; 2.15 nM and 30.7 nM in the experiment with U251 CNS; < 1 nM and 18.4 nM with OVCAR-5 ovarian; 2.34 nM and 27.5 nM with A549 NSCLC. Further, the GI50 in the experiment on SW-620 colon was 1.31 nM and 30.6 nM. The TGI in the experiment on NCI/ADR-RES ovarian is 3.67 nM and 51.7 nM; in the experiment on HCC-2998 colon, 3.77 nM and 40 nM; with UO-31 renal, 5.19 nM and 58.6 nM; in the experiment on BT-549 breast, 6.14 nM and 68.2 nM; with SNB-19 CNS, 4.76 nM and 58.9 nM; in the experiment on SF-268 CNS it was 6.41 nM and 80.6 nM. Further, the TGI in the experiment with NCI-H460 lung is 5.02 nM and 108 nM; in the experiment with T-47D breast, 6.27 nM and 75.2 nM; with RXF 393 renal, 4.11 nM and 45.7 nM; with MCF7 breast it was 8.12 nM and 108 nM; in the experiment on SN12C renal it was 2.18 nM and 82.5 nM; in the experiment on CAKI-1 renal, 3.85 nM and 51.1 nM. In addition, the TGI is 1.9 nM and 37.7 nM in the experiment with MDA-MB-231 breast; 4.6 nM and 49.4 nM in the experiment with SK-MEL-2 melanoma; 7.34 nM and 384 nM in the experiment with EKVX NSCLC; 5.15 nM and 143 nM in the experiment on SF-295 CNS; 7.04 nM and 122 nM in the experiment with ACHN renal; 5.61 nM and 61.8 nM in the experiment with OVCAR-3 ovarian. The TGI in the experiment on MALME-3M melanoma is 4.61 nM and 77.4 nM; in the experiment on KM12 colon it was 3.59 nM and 41.2 nM; in the experiment on UACC-62 melanoma it was 7.71 nM and 125 nM; in the experiment on UACC-257 melanoma, 5.87 nM and 92.2 nM; in the experiment on SF-539 CNS, 4.29 nM and 72.3 nM; in the experiment on TK-10 renal, 2.5 nM and 116 nM. Also, the TGI in the experiment with HS 578T breast was 8.13 nM and 99.9 nM; in the experiment with HOP-62 NSCLC it was 1.44 nM and 32 nM; with HT29 colon it was 6.12 nM and 91.5 nM; in the experiment on U251 CNS, 6.32 nM and 108 nM; in the experiment with OVCAR-5 ovarian, 5.2 nM and 371 nM; in the experiment with DU-145 prostate it was 1.29 nM and 33.7 nM. The TGI is 4.78 nM and 71.6 nM with A549 NSCLC; 5.68 nM and 119 nM in the experiment with SW-620 colon.
With `CCCCCCCCCC[C@@H](O)[C@@H]1CC[C@@H]([C@@H]2CC[C@@H]([C@@H](O)CCCCCCCCCC[C@H](O)CC3=CC(C)OC3=O)O2)O1` (some centres not stated), the TGI was 9.6 µM and > 100 µM with SF-268 CNS; 4.52 µM and > 100 µM in the experiment on LOX IMVI melanoma; 9.77 µM and > 100 µM in the experiment on KM12 colon; 7.3 µM and 98.7 µM in the experiment with UACC-62 melanoma; 8.47 µM and > 100 µM with PC-3 prostate; 6.93 µM and > 100 µM in the experiment with MOLT-4 leukemia. Besides, the TGI with RPMI-8226 leukemia was 8.3 µM and > 100 µM; in the experiment on CCRF-CEM leukemia, 7.27 µM and > 100 µM; in the experiment with HS 578T breast it was 7.96 µM and 81.9 µM; in the experiment on HT29 colon, 5.71 µM and > 100 µM; in the experiment with MDA-MB-435, 5.18 µM and > 100 µM.
With `CCOC(=O)Nc1nc2ccccc2[nH]1`, the GI50 in the experiment on NCI-H226 lung was 5.91 µM [sample A, mean of 2 tests] and > 100 µM [sample B, mean of 2 tests]; in the experiment on SN12C renal, > 100 µM [sample A, 1 test] and 6.73 µM [sample B, 1 test].
As for `C[C@H]1C/C=C/[C@H]2[C@@H]3O[C@]3(C)[C@@H](C)[C@H]3[C@H](Cc4ccccc4)NC(=O)[C@]32OC(=O)O/C=C/[C@@](C)(O)C1=O`, the TGI with SK-OV-3 ovarian is 1.47 µM and 138 nM; with SNB-78 CNS it was 63.1 nM, 67.2 µM, 62.5 nM; in the experiment on HCC-2998 colon it was 15.6 µM, 25.6 µM, 2.5 µM; with SK-MEL-5 melanoma, 1.14 µM, 15.5 µM, 275 nM; with SNB-75 CNS, 81.9 nM and > 250 µM; in the experiment with SNB-19 CNS, 8.34 µM and 73.9 nM. Moreover, the TGI was 6.82 µM, 125 µM, > 250 µM in the experiment with SF-268 CNS; 33.8 nM and 435 nM in the experiment with RXF 393 renal; 7.58 µM, 92 µM, > 250 µM with SK-MEL-28 melanoma; 5.44 µM and 67 µM with NCI-H226 lung; 82.9 µM and < 25 nM with SN12C renal; 7.2 µM, 125 µM, 65.5 µM in the experiment with LOX IMVI melanoma. Further, the TGI is 6.88 µM, 125 µM, > 250 µM with EKVX NSCLC; 33.3 nM [1 test] and 20.6 µM [mean of 10 tests] with SF-295 CNS; 18.8 µM and 1.7 µM with OVCAR-3 ovarian; 9.17 µM, 125 µM, > 250 µM with UACC-62 melanoma; 480 nM and < 25 nM with XF 498 CNS; 137 nM, 34.7 nM, 27.1 µM in the experiment with SF-539 CNS. Moreover, the TGI with NCI-H23 lung is 24.3 µM, 125 µM, > 250 µM; with MOLT-4 leukemia it was 83.8 µM, 7.58 µM, 3.32 µM; in the experiment with SN12K1 renal, 299 nM and 125 µM; with A549 NSCLC, 94.5 µM, 12.5 µM, 137 µM. In the experiment with P388 leukemia, the GI50 is 12.5 nM and 142 nM.

The record behind these values is PubChem BioAssay (NCI).
